Experimental data: PubChem BioAssay AID1768 (National Center for Advancing Translational Sciences (NCATS), 2009)
In all, about 270,000 compounds went through this assay and about 620 (0.23%) were called active. This list was built around the results that the source calls inconclusive (neither active nor inactive); the mix of calls is not that of the screen. Calls follow the shape of the dose curve; as a rule, active = well fitted inhibition curve with a large enough effect in the polarisation, with a control signal flat (not every such curve was filed as active); inconclusive = small, poorly fitted or top-dose-only effect, or effect the other way, or a change in a side signal; inactive = no such curve, though single readings can be large or run the other way; the % refers to the polarisation. A potency beside an inconclusive call is a rough fit, not a confirmed value. A note “side channel” means that the fit belongs to a control or component signal, not to the main read-out.

molecular target: Menin (Homo sapiens) (UniProt O00255); test: qHTS Assay for Inhibitors Targeting the Menin-MLL Interaction in MLL Related Leukemias: Competition With Texas Red Labeled MLL-derived Mutant Peptide; conditions: fluorescence polarization; FP activity change, negative = inhibition: at 61.6 µM (top of the series); as to FP activity change, negative = inhibition: % of control where 0% means no effect
Sequence of UniProt O00255 (O00255 whole entry, looked up): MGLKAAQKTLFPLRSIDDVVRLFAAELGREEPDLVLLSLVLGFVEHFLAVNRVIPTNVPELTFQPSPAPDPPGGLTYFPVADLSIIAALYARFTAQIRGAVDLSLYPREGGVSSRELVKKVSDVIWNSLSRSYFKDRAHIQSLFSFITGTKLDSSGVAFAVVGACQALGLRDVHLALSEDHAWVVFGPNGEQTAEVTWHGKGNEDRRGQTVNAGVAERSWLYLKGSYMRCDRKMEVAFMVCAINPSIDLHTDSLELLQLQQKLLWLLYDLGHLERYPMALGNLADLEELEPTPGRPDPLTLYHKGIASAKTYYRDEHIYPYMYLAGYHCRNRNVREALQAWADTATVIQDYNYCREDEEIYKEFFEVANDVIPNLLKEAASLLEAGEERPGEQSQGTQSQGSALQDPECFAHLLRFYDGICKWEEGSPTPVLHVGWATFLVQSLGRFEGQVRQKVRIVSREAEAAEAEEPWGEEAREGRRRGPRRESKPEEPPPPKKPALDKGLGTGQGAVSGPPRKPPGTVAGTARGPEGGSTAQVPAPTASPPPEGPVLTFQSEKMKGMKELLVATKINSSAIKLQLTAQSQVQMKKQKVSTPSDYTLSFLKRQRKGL
Potency is read from the fitted curve at half-maximal effect; tags tell the direction and shape of the fitted curve or compound fluorescence and quenching.

Row | SMILES | Potency | FP activity change, negative = inhibition
1 | COc1cccc(N=CC=C2OC(C)(C)C(C)(C)O2)c1 | inconclusive: 12.6 µM [inhibitor, partial curve] | –
2 | CC1CN(S(=O)(=O)c2ccc(C(=O)N(CCCN(C)C)c3nc4c(Cl)cccc4s3)cc2)CC(C)O1 (stereo unspecified) | inconclusive: 3.55 µM [fluorescent, side channel, partial curve] | –
3 | O=C(COC(=O)c1sc2ccccc2c1Cl)NCC1CCCCC1 | inconclusive: 4.47 µM [inhibitor, full curve] | –
4 | CCOc1c(C=C(C#N)C#N)c2ccccc2n1CC | inconclusive: 39.8 µM [quencher, side channel, single point] | –
5 | O=C(N/N=C/c1ccc(Br)s1)c1c[nH]c2ccccc12 | inconclusive: 22.4 µM [quencher, side channel, partial curve] | –
6 | Cc1cc2c(c(=O)n1CCN(C)C)C(c1ccccc1Br)C(C#N)=C(N)O2 (stereo unspecified) | – | inactive: 2.47%
7 | CCCc1nc(NCc2ccccn2)c2nnn(Cc3ccccc3F)c2n1 | inconclusive: 12.6 µM [fluorescent, side channel, partial curve] | –
8 | CS(=O)(=O)c1ccc2nc(NC(=O)c3cccc([N+](=O)[O-])c3)sc2c1 | inconclusive: 15.8 µM [quencher, side channel, partial curve] | –
9 | O=C(NC(=S)Nc1ccccc1)c1csnn1 | inconclusive: 35.5 µM [quencher, partial curve] | –
10 | COCCCNC(=O)CCc1c(C)nc2c(c(C)nn2-c2ccc(C)cc2)c1C | inconclusive: 6.31 µM [inhibitor, single point] | –
11 | CCNc1ncc2nc(-c3ccc(F)cc3)c(=O)n(-c3ccccc3)c2n1 | inconclusive: 15.8 µM [fluorescent, side channel, partial curve] | –
12 | COc1cccc(N2C(=O)/C(=C\c3cccs3)NC2=S)c1 | inconclusive: 35.5 µM [quencher, side channel, single point] | –
13 | NS(=O)(=O)c1ccc(N2N=C(c3ccc(Br)cc3)CC2c2ccc(F)cc2)cc1 (stereo unspecified) | inconclusive: 39.8 µM [inhibitor, single point] | –
14 | COc1cc2c(cc1NC(=O)c1cccnc1)oc1ccccc12 | inconclusive: 12.6 µM [quencher, side channel, partial curve] | –
15 | CCCCOC(=O)CSCC(=O)N1N=C(c2cccs2)CC1c1ccc(F)cc1 (stereo unspecified) | – | inactive: -7.82%
16 | Cn1c(/C=C(\C#N)C(N)=S)ccc1-c1ccc(Br)cc1 | inconclusive: 12.6 µM [quencher, side channel, partial curve] | –
